Assay results: publication PMC4336329 (PLoS ONE, 2015)
In all, about 310,000 compounds went through this assay and about 14,000 (4.5%) showed an effect of 50% or more. The effect is printed as a negative number. The list shows a part of the results.

target: human ether-à-go-go-related gene (hERG) potassium channel (human, UniProt Q12809); test: primary screen, population patch clamp on CHO cells stably expressing hERG
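Also: peak tail current of the secondary pulse compared with the same well before compound.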

human ether-à-go-go-related gene (hERG) potassium channel, sequence (Q12809 whole entry, looked up): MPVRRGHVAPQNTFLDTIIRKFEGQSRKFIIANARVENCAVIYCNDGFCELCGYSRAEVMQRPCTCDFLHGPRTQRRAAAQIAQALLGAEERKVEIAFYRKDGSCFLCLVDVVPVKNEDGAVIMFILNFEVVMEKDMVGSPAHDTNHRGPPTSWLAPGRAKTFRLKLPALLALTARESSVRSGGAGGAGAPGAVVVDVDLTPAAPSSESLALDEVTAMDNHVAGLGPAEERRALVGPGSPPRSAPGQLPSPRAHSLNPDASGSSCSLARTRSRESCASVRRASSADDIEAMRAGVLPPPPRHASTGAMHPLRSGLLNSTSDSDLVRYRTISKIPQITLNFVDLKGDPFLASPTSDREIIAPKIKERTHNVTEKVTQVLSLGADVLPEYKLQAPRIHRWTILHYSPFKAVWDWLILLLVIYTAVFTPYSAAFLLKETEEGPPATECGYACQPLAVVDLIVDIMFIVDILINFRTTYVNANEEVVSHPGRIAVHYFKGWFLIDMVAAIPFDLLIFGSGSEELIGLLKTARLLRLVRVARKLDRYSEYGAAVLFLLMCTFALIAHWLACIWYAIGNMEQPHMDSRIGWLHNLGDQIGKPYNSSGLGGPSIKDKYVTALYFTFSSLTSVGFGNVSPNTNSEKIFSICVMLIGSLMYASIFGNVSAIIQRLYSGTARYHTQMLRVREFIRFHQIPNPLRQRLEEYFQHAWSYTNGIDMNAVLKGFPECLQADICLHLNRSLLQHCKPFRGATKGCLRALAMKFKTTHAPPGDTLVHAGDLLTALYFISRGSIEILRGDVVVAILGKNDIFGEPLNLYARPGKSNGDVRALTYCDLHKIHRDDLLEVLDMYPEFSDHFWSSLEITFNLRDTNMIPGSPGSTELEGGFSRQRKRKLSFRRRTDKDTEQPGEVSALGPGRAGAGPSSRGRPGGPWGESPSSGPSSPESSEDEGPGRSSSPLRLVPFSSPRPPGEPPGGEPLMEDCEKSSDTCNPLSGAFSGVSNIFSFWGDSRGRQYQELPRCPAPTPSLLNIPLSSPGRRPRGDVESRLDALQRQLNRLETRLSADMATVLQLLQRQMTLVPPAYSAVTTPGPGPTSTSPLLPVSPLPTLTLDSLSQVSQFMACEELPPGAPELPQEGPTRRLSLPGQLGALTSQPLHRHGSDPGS

Row | Compound | hERG current change (%, negative = inhibition) at 10uM [%]
1 | Cn1c(C2CC(=O)N(Cc3ccccc3)C2)nc2ccccc21 (centres unmarked) | 0.513
2 | COc1ccccc1N1CCNC(C)C1=O.Cl (centres unmarked) | 13.6
3 | Cc1ccc(C(=O)Nc2cccc3cccnc23)cc1Br | 2.61
4 | O=C(O)c1ccc(CSC2CCCCC2)cc1 | 23.4
5 | Cc1ccc(-n2[nH]c(C)c(C=NCc3ccncc3)c2=O)cc1 | -54.5
6 | Cc1n[nH]c(=O)nc1NCc1ccco1 | 18.3
7 | Cc1ccc(NC(=O)c2c(NC(=O)CCC(=O)O)sc3c2CCCCC3)cc1 | 0.343
8 | CC(=C/c1ccc(C(C)C)cc1)/C=N/NC(=O)c1ccncc1 | 0.164
9 | CC(C)CCN(CCC(C)C)CC(O)Cn1c2ccccc2c(=O)c2ccccc21 (centres unmarked) | -22
10 | CCn1c(SCC(=O)Nc2cccc(NC(=O)c3ccco3)c2)nnc1-c1cccs1 | -79.8
11 | Cc1noc(C)c1C(=O)NCCc1ccccc1 | 0.324
12 | COCc1nc2ccccc2n1Cc1ccc(Br)cc1 | -26.5
13 | COc1ccccc1OCCCc1c(C)n[nH]c1C | -2.83
14 | COC(=O)c1cc(OC)c(OC)cc1NC(=O)CCC1CCCC1 | 6.85
15 | Cc1ccc(C(=O)C2=C(O)C(=O)N(Cc3ccccc3)C2c2cccnc2)o1 (centres unmarked) | 8.29
16 | O=C(Nc1ccc2c(c1)CCC2)Nc1ccccc1Cl | 6.96
17 | CSCC[C@H](NC(=O)N1CCn2c1nc1ccccc12)C(=O)NC1CC1 | 16.4
18 | CCOC(=O)N1CCC(NC(=O)Cn2nc(Cc3ccncc3)c3ccccc3c2=O)CC1 | 10
19 | Cc1nc([N+](=O)[O-])c(C(=O)OCc2ccccc2Br)n1C | -16.4
20 | CN(C)c1ccc(C(=S)N2CCNCC2)cc1 | 8.76

Row | Compound | hERG current change (%, negative = inhibition) at 10uM [%]
21 | CC(=O)Nc1cc(-c2nn(CC(=O)N3CCCCC3)c(=O)c3ccccc23)ccc1N1CCOCC1 | 2.8
22 | COC(=O)C1=C(N)OC2=C(C(=O)CCC2)C1c1cccnc1 (centres unmarked) | 4.97
23 | CCCOc1ccc(C(=O)NCC(c2ccco2)N(C)C)cc1 (centres unmarked) | -36.4
24 | CCOc1cc(CNCc2ccncc2)cc(Br)c1OCc1ccc(F)cc1.Cl | -46.6
25 | CC(=O)N(Cc1ccc(F)cc1)c1cccc(C)c1C | 4.83
26 | Cc1ccc([N+](=O)[O-])cc1S(=O)(=O)NCCc1c(C)[nH]c2c(C)cccc12 | 2.85
27 | Cc1ncc([N+](=O)[O-])n1CC(=O)Nc1ccc(OC(F)(F)Cl)cc1 | 20.1
28 | O=C(N/N=C/c1cc(Br)ccc1O)Nc1ccccc1 | 24.3
29 | CCCCN1C(=O)c2ccccc2C1C(=O)NC1CCCC1 (centres unmarked) | -1.36
30 | CSc1nc(-c2ccccc2)nc(N2CCCC2)c1C(C)=O | -10.8
31 | CCOC(=O)c1c(C)[nH]c(C(=O)CSc2nccc(C)n2)c1C | 22.9
32 | O=C(CN1CC[n+]2c(-c3ccccc3)csc21)c1ccc(Br)cc1.[Br-] | -40.6
33 | O=C(Nc1nnc(C2CCCCC2)s1)c1ccc(Br)s1 | 1.12
34 | CCNC(=O)COc1cc(C)c(Br)c(C)c1 | 0.726
35 | O=C(NNS(=O)(=O)c1ccc2ccccc2c1)c1cc(-c2ccccn2)nc2ccccc12 | 12.7
36 | CNC(=O)NC(=O)CSc1nc2cc(C(=O)OC)ccc2c(=O)n1-c1ccccc1 | 6.03
37 | O=C(NNS(=O)(=O)c1ccc(Br)cc1)c1sccc1-n1cccc1 | 3.22
38 | COc1ccc(-c2csc(N(CCCN(C)C)C(=O)c3ccccc3C)n2)cc1.Cl | -75.1
39 | O=C(CSc1nc(-c2ccccc2)cs1)NC(=O)NCc1ccco1 | -6.42
40 | CN(C)/C=C(\C#N)C(=O)Nc1ccc(O)cc1F | 19

Row | Compound | hERG current change (%, negative = inhibition) at 10uM [%]
41 | CCC1(CC)Cc2ccccc2-c2nc(CN(C)C)[nH]c(=O)c21 | -8.91
42 | CC(NC(=O)/C(C#N)=C/c1cn[nH]c1-c1ccccc1)c1ccccc1 (centres unmarked) | -18.5
43 | O=C1C=C(Nc2ccc(Cl)cc2)CC(c2ccc(Cl)cc2)C1 (centres unmarked) | -2.27
44 | COc1ccc2ccc(O)c(CN(C)CC(=O)Nc3ccccc3C(F)(F)F)c2c1 | 8.1
45 | CCC(CC)C(=O)c1c[nH]c(C(=O)NCc2ccc(F)cc2)c1 | -12.3
46 | O=c1[nH]nc(CNc2ccc(C(F)(F)F)cc2)c2ccccc12 | 1.92
47 | CCc1ccccc1NC(=O)/C(C#N)=C/c1ccc(Sc2ccccc2)o1 | -1.81
48 | CC(=O)Nc1ccc(NC(=O)[C@H](C)NC(=O)c2ccco2)cc1 | 25.1
49 | O=c1[nH]c(CSc2nnc(COc3ccccc3)n2-c2ccccc2)nc2ccccc12 | -4.92
50 | Cc1ccc(CC(=O)Nc2ccc(C(=O)N3CCCCC3)cc2)cc1 | 10.8
51 | O=C(Nc1ccc(Cl)cc1)C1C2CCCCC21 (centres unmarked) | 13.8
52 | Cc1cccc(CCNC(=O)CCNS(=O)(=O)c2cc(Br)cnc2N)c1 | -5.7
53 | CCOC(=O)CC(=O)CSc1ncnc2c1nnn2-c1ccc(F)cc1 | 14.2
54 | COc1ccc(NC(=O)CC2Nc3cc(C)c(C)cc3NC2=O)c([N+](=O)[O-])c1 (centres unmarked) | 11.9
55 | COc1ccc(CNC(=O)CSc2cc(=O)n(C)c3ccccc23)cc1 | -15
56 | CC(OC(=O)c1nsc(Cl)c1Cl)C(=O)NC1CCCCC1 (centres unmarked) | 16.4
57 | Cl.NCC(O)(c1ccc(Cl)cc1)c1ccc(Cl)cc1 | -5.47
58 | COc1ccc(NC(=O)N2CCC(NC(=O)c3ccco3)CC2)cc1 | 3.68
59 | O=C(CNC(=O)c1ccc(Br)o1)NCc1ccc(Cl)cc1 | -3.47
